Consider 65 compounds from PubChem BioAssay AID2528 (National Center for Advancing Translational Sciences (NCATS), 2010).

Structures are written as SMILES. The whole screen tested about 350,000 compounds, of which about 700 (0.2%) were called active. The call rests on the fitted dose curve; in most records, active means well fitted inhibition curve with a large enough effect; inconclusive means small, poorly fitted or top-dose-only effect; inactive means flat fitted curve, though single readings scatter. The entries are a selection whose mix differs from that of the whole data set.
Potency means the concentration at half of the fitted maximal effect.

For the test, the target named is RecQ-like DNA helicase BLM (Homo sapiens) (UniProt P54132). In words: qHTS Assay for Inhibitors of Bloom's syndrome helicase (BLM). Further: nearly all actives have a fitted effect of over 35% in size. The conditions noted are these: recombinant BLM DNA unwinding, fluorescence dequenching; series mostly up to 56.1 µM; activity change, negative = inhibition: at the top concentration. An excerpt: Survival of cells and the faithful propagation of the genome depend on elaborate mechanisms of detecting and repairing DNA damage. Treatment of advanced cancer relies on radiation therapy or chemotherapy, which kill cancer cells by causing extensive DNA damage. It is often found, that cancer cells develop resistance to therapy through enhanced activity of DNA repair functions; this has led to an increased interest in developing drugs that interfere with DNA repair, which could sensitize cancer cells to conventional therapy.
Chain of UniProt P54132 (P54132 whole entry, looked up): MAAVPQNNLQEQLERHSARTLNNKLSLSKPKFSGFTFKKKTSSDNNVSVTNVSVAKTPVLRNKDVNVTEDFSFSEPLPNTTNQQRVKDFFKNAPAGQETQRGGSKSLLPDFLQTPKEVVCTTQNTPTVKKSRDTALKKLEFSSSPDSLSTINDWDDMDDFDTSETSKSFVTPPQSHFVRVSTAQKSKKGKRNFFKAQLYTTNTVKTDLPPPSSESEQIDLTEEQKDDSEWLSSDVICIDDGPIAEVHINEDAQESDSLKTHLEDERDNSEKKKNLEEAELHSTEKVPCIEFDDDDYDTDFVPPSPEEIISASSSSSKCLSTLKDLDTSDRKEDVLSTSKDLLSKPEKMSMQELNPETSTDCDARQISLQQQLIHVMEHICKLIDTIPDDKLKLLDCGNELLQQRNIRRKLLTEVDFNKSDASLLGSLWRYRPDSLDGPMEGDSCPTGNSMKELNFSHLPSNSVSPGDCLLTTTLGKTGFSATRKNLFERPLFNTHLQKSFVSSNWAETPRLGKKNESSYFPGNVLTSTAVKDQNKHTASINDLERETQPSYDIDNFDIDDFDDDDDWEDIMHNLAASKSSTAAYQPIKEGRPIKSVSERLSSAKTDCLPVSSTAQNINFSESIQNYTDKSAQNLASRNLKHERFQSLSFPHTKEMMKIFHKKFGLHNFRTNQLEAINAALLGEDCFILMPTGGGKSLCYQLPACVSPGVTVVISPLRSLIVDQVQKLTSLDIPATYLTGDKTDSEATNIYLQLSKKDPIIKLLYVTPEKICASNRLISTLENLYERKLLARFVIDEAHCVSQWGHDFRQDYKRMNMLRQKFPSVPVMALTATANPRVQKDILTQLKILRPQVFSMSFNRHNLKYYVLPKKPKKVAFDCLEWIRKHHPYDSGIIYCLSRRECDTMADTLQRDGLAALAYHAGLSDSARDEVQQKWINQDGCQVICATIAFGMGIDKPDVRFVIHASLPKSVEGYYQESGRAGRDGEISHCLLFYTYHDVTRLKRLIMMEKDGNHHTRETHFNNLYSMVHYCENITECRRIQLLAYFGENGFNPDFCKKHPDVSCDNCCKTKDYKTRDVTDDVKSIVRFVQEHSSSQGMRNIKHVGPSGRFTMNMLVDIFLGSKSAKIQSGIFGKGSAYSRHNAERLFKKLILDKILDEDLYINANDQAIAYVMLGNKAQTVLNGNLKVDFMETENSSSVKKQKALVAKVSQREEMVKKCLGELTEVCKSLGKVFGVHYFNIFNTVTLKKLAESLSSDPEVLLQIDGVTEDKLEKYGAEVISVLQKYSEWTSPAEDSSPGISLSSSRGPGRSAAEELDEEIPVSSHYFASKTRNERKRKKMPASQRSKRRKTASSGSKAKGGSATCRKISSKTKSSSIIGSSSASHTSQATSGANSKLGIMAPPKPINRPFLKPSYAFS
This validation qHTS assay pertains to human BLM, which is important in resolving abnormal DNA structures formed during replication or homologous recombination. Shutting down the expression of BLM leads to chromosomal instability and higher radiation sensitivity in cultured cells.
The validation assay was a fluorescence quenching based kinetic qHTS for BLM Helicase DNA unwinding. The activity was measured as ATP-dependent separation of a 20-bp DNA duplex extended by 30-nt single-stranded tails (forked duplex). The forked DNA substrate was tagged with rhodamine fluorophore (carboxytetramethyl rhodamine, TAMRA) and BHQ-2 (Black Hole Quencher 2) dark quencher. Strand separation results in an increase in the fluorescence of TAMRA (excitation 525 nm, emission 598 nm). This substrate construct operates in a red-shifted region where very few compound library members have been noted to fluoresce (PubChem AIDs 593 and 594). An additional feature of the assay is the inclusion of 2.5 ug/ml poly (dIdC), to reduce interference by compounds such as DNA intercalators, a major source of false inhibitors.
Ian Hickson, University of Oxford
Opher Gileadi, Structural Genomics Consortium, University of Oxford
Screening Center PI: Austin, C.P.
Screening Center: NIH Chemical Genomics Center [NCGC]
Three uL of reaction buffer (25 mM Tris-HCl (pH 8.0), 5 mM NaCl, 2 mM MgCl2, 1mM DTT, 0.01% Tween- 20, and 2.5 ug/ml poly(dI-dC), including enzyme (50 nM BLM), were dispensed into a 1536-well Greiner black assay plate via solenoid-valve based nanoliter dispensers. Compounds (23 nl each in columns 5-48) and control (23 nl each in column 2 as dose-response) were transferred via a Kalypsys pintool equipped with a 1536-pin array. The plates were incubated for 15 min at room temperature, and then 1 ul of substrates (200 nM DNA and 2 mM ATP, final concentrations) was added to start the reaction. The plate was transferred into a ViewLux high-throughput CCD imager where the reaction progress was measured in a discontinuous kinetic mode (two reads spaced 2 hours apart, with intermediate room temperature incubation of the covered assay plate) by using standard red-fluorescence optics (excitation filter 525 nm, emission filter 598 nm). Enzyme-free and vehicle (DMSO) controls were included for signal normalization.
On the technique in general: Quantitative high-throughput screening tests each substance at several concentrations.
For `CN1CC[C@]2(C)c3cc(O)ccc3N(C)[C@@H]12`, the “activity change, negative = inhibition” value is inactive: -10.8% [at 21.4 µM].

For `O=c1[nH]oc2c1CCNC2`, the Potency result was “inactive”.

On to `CNc1ccc2oc(C[C@@H]3OC4(CC[C@@H]3C)O[C@H](C(C)C(=O)c3ccc[nH]3)[C@H](C)C[C@H]4C)nc2c1C(=O)O` (stereo not given in full), for which the “activity change, negative = inhibition” value is inactive: 1.06%.

For `COc1ccc2c(c1OC)C(=O)O[C@H]2[C@H]1c2cc3c(cc2CCN1C)OCO3`, the “activity change, negative = inhibition” value is inactive: 0.126% [at 21.4 µM].

Regarding `CC[C@@H](CO)NC(=O)[C@@H]1C=C2c3cccc4[nH]cc(c34)C[C@H]2N(C)C1`, the “activity change, negative = inhibition” value is inactive: -16.6%.

Consider `CNC(C)[C@@H](O)c1ccccc1` (stereo not given in full), for which the “activity change, negative = inhibition” value is inactive: -7.82%.

Take `O=C(CCCN1CCC2(CC1)C(=O)NCN2c1ccccc1)c1ccc(F)cc1`: the Potency result is “inactive”.

For `NCC1(CC(=O)O)CCCCC1`, the Potency entry is “inactive”.

Turning to `CC(=O)[C@H]1CC[C@H]2C3CC[C@H]4C[C@H](O)CC[C@]4(C)C3CC[C@]12C` (stereo not given in full), the “activity change, negative = inhibition” value is inactive: -0.889%.

On to `O=C(O)CC[N+](=O)[O-]`, for which the “activity change, negative = inhibition” value is inactive: -13.5%.

For `CN1C[C@H](CNC(=O)OCc2ccccc2)C[C@@H]2c3cccc4c3c(cn4C)C[C@H]21`, the Potency entry was “inactive”.

For `COc1ccc2c(c1OC)C(=O)OC2C1c2cc3c(cc2CCN1C)OCO3` (stereo not given), the Potency entry was “inactive”.

For the compound `CN1CCC[C@H]1c1cccnc1`, the “activity change, negative = inhibition” value was inactive: 0.0003%.

With `CC(C)c1cccc(C(C)C)c1O`, the Potency entry is “inactive”.

`NC1C[C@H]1c1ccccc1` (stereo not given in full): the “activity change, negative = inhibition” value is inactive: -15.2%.

Consider `CN1C[C@H](C(=O)N[C@]2(C)O[C@@]3(O)[C@H]4CCCN4C(=O)[C@H](Cc4ccccc4)N3C2=O)C[C@H]2c3cccc4[nH]cc(c34)C[C@@H]21`, for which the “activity change, negative = inhibition” value is inactive: -15.4%.

As for `C/C=C(/C)C(=O)O[C@H]1C(C)=C2[C@H]([C@@H]1OC(=O)CCCCCCC)[C@@](C)(OC(C)=O)C[C@H](OC(=O)CCC)[C@@]1(O)[C@H]2OC(=O)[C@@]1(C)O`, the “activity change, negative = inhibition” value was inactive: -17.4%.

In the case of `Cc1o[nH]c(=O)c1C[C@H](N)C(=O)O`, the Potency result was “inactive”.

Regarding `c1ccc2c(c1)OCC(C1=NCCN1)O2` (stereo not given), the Potency entry was “inactive”.

On to `CC[C@@H](CO)NC(=O)[C@@H]1C=C2c3cccc4c3c(cn4C)C[C@H]2N(C)C1`, for which the Potency result is “inactive”.

For `C[C@H](CCC(=O)O)[C@H]1CC[C@@H]2[C@H]3CC[C@H]4C[C@@H](O)CC[C@@]4(C)[C@H]3CC[C@]21C`, the “activity change, negative = inhibition” value is inactive: -5.44% [at 21.4 µM].

For `CCN(CC)C(=O)N[C@H]1C[C@@H]2c3cccc4[nH]cc(c34)C[C@H]2N(C)C1`, the “activity change, negative = inhibition” value is inactive: -8.82%.

Turning to `CN1/C(=C\C=C\C2=[N+](C)c3ccc4ccccc4c3C2(C)C)C(C)(C)c2ccccc21`, the Potency was active: 31.6 µM.

Take `O=C1NC(=S)N(Cc2ccco2)C(=O)/C1=C\c1cccs1`: the Potency is active: 28.2 µM.

For the compound `CC1OC1P(=O)(O)O` (stereo not given), the “activity change, negative = inhibition” value was inactive: -1.24%.

`C[N+]1(C)[C@@H]2CC(OC(=O)[C@H](CO)c3ccccc3)C[C@H]1[C@@H]1O[C@@H]12` (stereo not given in full): the Potency entry was “inactive”.

On to `CC(CCC(=O)O)C1CCC2C3CC[C@H]4CC(O)CC[C@@]4(C)C3CC[C@@]12C` (stereo not given in full), for which the “activity change, negative = inhibition” value was inactive: -29.8%.

On to `CNc1ccc2oc(C[C@H]3O[C@]4(CC[C@H]3C)O[C@H]([C@H](C)C(=O)c3ccc[nH]3)[C@H](C)C[C@H]4C)nc2c1C(=O)O`, for which the “activity change, negative = inhibition” value is inactive: -0.188%.

For the compound `COC(=O)N1CCN(C(=O)Cc2ccc(Cl)c(Cl)c2)C(CN2CCCC2)C1` (stereo not given), the “activity change, negative = inhibition” value is inactive: -6.5%.

Consider `CCCN(CCC)C1Cc2cc(OC)c(OC)cc2C1`, for which the “activity change, negative = inhibition” value was inactive: -3.06%.

On to `C[N+]1(C)C2CCC1CC(OC(=O)C(CO)c1ccccc1)C2` (stereo not given), for which the “activity change, negative = inhibition” value was inactive: 1.54%.

In the case of `COc1ccc(OC)c([C@H](O)[C@H](C)N)c1`, the “activity change, negative = inhibition” value was inactive: 0.941% [at 21.4 µM].

For `CC(=O)c1c(O)c(C)c(O)c(Cc2c(O)c3c(c(C(=O)/C=C\c4ccccc4)c2O)OC(C)(C)C=C3)c1O`, the “activity change, negative = inhibition” value is inactive: -15.5%.

Turning to `CNc1ccc2nc3ccccc3[n+](C)c2c1`, the Potency is active: 17.8 µM.

As to `N#CC(C#N)=Cc1ccc(O)c(O)c1`, the “activity change, negative = inhibition” value was inactive: -9.39%.

Consider `COc1ccc(N2C(=O)/C(=C/C=C/c3ccccc3[N+](=O)[O-])C(=O)NC2=S)cc1`, for which the Potency is active: 28.2 µM.

Take `C[C@]12N[C@@H](Cc3ccccc31)c1ccccc12`: the Potency result is “inactive”.

`C[N+]1(C)C2CC[C@H]1CC(OC(=O)[C@@H](CO)c1ccccc1)C2` (stereo not given in full): the “activity change, negative = inhibition” value was inactive: -0.783%.

For `CC1COC2=C1C(=O)C(=O)c1c2ccc2c1CCCC2(C)C` (stereo not given), the “activity change, negative = inhibition” value is inactive: -23.7%.

In the case of `CC(C)NCC(O)COc1cccc2[nH]ccc12` (stereo not given), the Potency entry was “inactive”.

Take `C=CCN1CC[C@]23c4c5ccc(O)c4O[C@H]2C(=O)CC[C@@]3(O)[C@H]1C5`: the Potency result was “inactive”.

`Oc1cc2c(cc1O)[C@H]1c3ccccc3CN[C@H]1CC2`: the “activity change, negative = inhibition” value is inactive: -2.48%.

For `C=CCN1CC[C@]23c4c5ccc(O)c4O[C@@H]2C(=O)CC[C@]3(O)[C@H]1C5`, the Potency entry was “inactive”.

Turning to `CC(=O)Nc1nnc(S(N)(=O)=O)s1`, the Potency result was “inactive”.

Take `CCCCCCC(C)(C)c1ccc([C@@H]2C[C@H](O)CC[C@@H]2CCCO)c(O)c1`: the “activity change, negative = inhibition” value was inactive: -12.9%.

Consider `NNCc1cccc(O)c1`, for which the “activity change, negative = inhibition” value was inactive: 3.19%.

Turning to `C[C@H](N)Cc1c[nH]c2ccc(O)cc12`, the “activity change, negative = inhibition” value is inactive: 3.02%.

As for `CN[C@@H](C)[C@@H](O)c1ccccc1`, the “activity change, negative = inhibition” value is inactive: -1.88%.

Consider `Cc1cc(C(C)(C)C)cc(C)c1CC1=NCCN1`, for which the Potency entry was “inactive”.

As to `CC(C)C[C@H]1C(=O)N2CCC[C@@H]2[C@]2(O)O[C@](NC(=O)[C@H]3C=C4c5cccc6[nH]c(Br)c(c56)C[C@H]4N(C)C3)(C(C)C)C(=O)N12`, the “activity change, negative = inhibition” value was inactive: -5.89% [at 21.4 µM].

Take `CC(=O)[C@@]1(O)CC[C@H]2[C@@H]3CCC4=CC(=O)CC[C@]4(C)[C@H]3CC[C@@]21C`: the Potency result is “inactive”.

Consider `NCC(CC(=O)O)c1ccc(Cl)cc1` (stereo not given), for which the Potency entry was “inactive”.

With `NC[C@H](CC(=O)O)c1ccc(Cl)cc1`, the “activity change, negative = inhibition” value was inactive: -1.14%.

Consider `CCCCC/C=C\C/C=C\C/C=C\C/C=C\CCCCCC(=O)NCCO`, for which the Potency entry was “inactive”.

Regarding `CC(NC(C)(C)C)C(=O)c1cccc(Cl)c1` (stereo not given), the Potency result was “inactive”.

For the compound `CC(C)(C)c1o[nH]c(=O)c1C[C@H](N)C(=O)O`, the “activity change, negative = inhibition” value was inactive: -4.95%.

In the case of `O=C(Cc1ccc(Cl)c(Cl)c1)N1CCCC[C@H]1CN1CCCC1`, the “activity change, negative = inhibition” value was inactive: -1.96%.

As to `C=C(C)[C@H]1CN[C@H](C(=O)O)[C@@H]1CC(=O)O`, the “activity change, negative = inhibition” value is inactive: -3.94%.

Regarding `COc1cc(-c2ccc(=O)[nH]n2)ccc1OC(F)F`, the Potency entry was “inactive”.

As for `CCCCCCCCC(=O)NCc1ccc(O)c(OC)c1`, the Potency entry was “inactive”.

On to `CC[C@H](CO)NC(=O)[C@H]1C=C2c3cccc4[nH]cc(c34)C[C@@H]2N(C)C1`, for which the “activity change, negative = inhibition” value was inactive: -6.75% [at 21.4 µM].

`NC(=NCCCC(N)C(=O)O)N[N+](=O)[O-]` (stereo not given): the “activity change, negative = inhibition” value was inactive: 3.32%.

As to `N#CC(C#N)=Cc1ccc([N+](=O)[O-])c(O)c1`, the “activity change, negative = inhibition” value is inactive: -6.74%.

As to `CNC[C@H](O)c1ccc(O)cc1`, the “activity change, negative = inhibition” value was inactive: 3.74% [at 21.4 µM].

Take `CC(C)[C@@]1(NC(=O)[C@@H]2C[C@H]3c4cccc5[nH]cc(c45)C[C@@H]3N(C)C2)O[C@]2(O)[C@H]3CCCN3C(=O)[C@H](Cc3ccccc3)N2C1=O`: the “activity change, negative = inhibition” value was inactive: -0.895% [at 21.4 µM].
